In patent publication US5229379A, “Certain N-substituted-amino-alkane phosphinic acid derivatives having anti-epileptic properties” (priority 1990, dated 1993):
The name of at least one read-out is uncertain.

System: "spike and wave" discharges in epileptic rats (male Wistar rats of the Strasbourg colony)
Experiment: Inhibition of spike and wave discharges in epileptic rats (absence epilepsy model)
Assay type: in vivo, rat
Details: mean ± SEM, 6 rats
[1] = i.p. 50 mg/kg, period 20-40 min
[2] = i.p. 50 mg/kg, period 40-60 min
[3] = i.p. 50 mg/kg, period 60-80 min
[4] = i.p. 50 mg/kg, period 80-100 min
[5] = i.p. 50 mg/kg, period 100-120 min
[6] = i.p. 100 mg/kg, period 0-20 min
[7] = i.p. 100 mg/kg, period 20-40 min
[8] = i.p. 100 mg/kg, period 40-60 min
[9] = i.p. 100 mg/kg, period 60-80 min
[10] = i.p. 100 mg/kg, period 80-100 min
[11] = i.p. 100 mg/kg, period 100-120 min
[12] = i.p. 200 mg/kg, period 0-20 min
[13] = i.p. 200 mg/kg, period 20-40 min
[14] = i.p. 200 mg/kg, period 40-60 min
[15] = i.p. 200 mg/kg, period 60-80 min
[16] = i.p. 200 mg/kg, period 80-100 min
[17] = i.p. 200 mg/kg, period 100-120 min
[18] = i.p. 400 mg/kg, period 0-20 min
[19] = i.p. 400 mg/kg, period 20-40 min
[20] = i.p. 400 mg/kg, period 40-60 min
[21] = i.p. 400 mg/kg, period 60-80 min
[22] = i.p. 400 mg/kg, period 80-100 min
[23] = i.p. 400 mg/kg, period 100-120 min
[24] = p.o. 300 mg/kg, period 0-20 min
[25] = p.o. 300 mg/kg, period 20-40 min
[26] = p.o. 300 mg/kg, period 40-60 min
[27] = p.o. 300 mg/kg, period 60-80 min
[28] = p.o. 300 mg/kg, period 80-100 min
[29] = p.o. 300 mg/kg, period 100-120 min
[30] = p.o. 300 mg/kg, period 120-140 min
[31] = p.o. 300 mg/kg, period 140-160 min
[32] = p.o. 500 mg/kg, period 0-20 min
[33] = p.o. 500 mg/kg, period 20-40 min
[34] = p.o. 500 mg/kg, period 40-60 min
[35] = p.o. 500 mg/kg, period 60-80 min
[36] = p.o. 500 mg/kg, period 80-100 min
[37] = p.o. 500 mg/kg, period 100-120 min
[38] = p.o. 500 mg/kg, period 120-140 min
[39] = p.o. 500 mg/kg, period 140-160 min

In the case of `NCCCP(=O)(O)CC1CCCCC1` [3-aminopropyl(cyclohexylmethyl)phosphinic acid], the “sum total duration of the spike and wave discharges” value (“sum total duration” for short) (i.p. 25 mg/kg, period 0-20 min) is reported as 163 ± 19 s, the “sum total duration” value (i.p. 25 mg/kg, period 20-40 min) is reported as 45 ± 15 s and the “sum total duration” value (i.p. 25 mg/kg, period 40-60 min) is reported as 14 ± 5 s. The “sum total duration” value (i.p. 25 mg/kg, period 60-80 min) was 29 ± 8 s, the “sum total duration” value (i.p. 25 mg/kg, period 80-100 min) was 41 ± 6 s and the “sum total duration” value (i.p. 25 mg/kg, period 100-120 min) was 18 ± 8 s. The “sum total duration” value (i.p. 50 mg/kg, period 0-20 min) was 63 ± 20 s, the “sum total duration” value [1] was 17 ± 7 s and the “sum total duration” value [2] was 1 ± 1 s. For the same compound, the “sum total duration” value [3] was 11 ± 5 s, the “sum total duration” value [4] was 0 ± 0 s and the “sum total duration” value [5] was 45 ± 22 s. The “sum total duration” value [6] was 133 ± 37 s, the “sum total duration” value [7] was 15 ± 3 s and the “sum total duration” value [8] was 12 ± 3 s. For the same compound, the “sum total duration” value [9] was 3 ± 2 s, the “sum total duration” value [10] was 32 ± 7 s and the “sum total duration” value [11] was 12 ± 5 s. The “sum total duration” value [12] was 61 ± 18 s, the “sum total duration” value [13] was 3 ± 3 s and the “sum total duration” value [14] was 1 ± 1 s. For the same compound, the “sum total duration” value [15] was 0 ± 0 s, the “sum total duration” value [16] was 2 ± 2 s and the “sum total duration” value [17] was 3 ± 2 s. For the same compound, the “sum total duration” value [18] was 38 ± 23 s, the “sum total duration” value [19] was 0 ± 0 s and the “sum total duration” value [20] was 0 ± 0 s. For the same compound, the “sum total duration” value [21] was 0 ± 0 s, the “sum total duration” value [22] was 0 ± 0 s and the “sum total duration” value [23] was 1 ± 1 s. For the same compound, the “sum total duration” value [24] was 124 ± 53 s, the “sum total duration” value [25] was 157 ± 78 s and the “sum total duration” value [26] was 162 ± 71 s. The “sum total duration” value [27] was 75 ± 43 s, the “sum total duration” value [28] was 116 ± 77 s and the “sum total duration” value [29] was 21 ± 21 s. For the same compound, the “sum total duration” value [30] was 54 ± 38 s, the “sum total duration” value [31] was 47 ± 34 s and the “sum total duration” value [32] was 10 ± 6 s. For the same compound, the “sum total duration” value [33] was 0 ± 0 s, the “sum total duration” value [34] was 0 ± 0 s and the “sum total duration” value [35] was 0 ± 0 s. The “sum total duration” value [36] was 0 ± 0 s, the “sum total duration” value [37] was 0 ± 0 s and the “sum total duration” value [38] was 0 ± 0 s. For the same compound, the “sum total duration” value [39] was 0 ± 0 s.

For `CCOC(OCC)P(=O)(O)CCCN` [3-aminopropyl(diethoxymethyl)phosphinic acid], the “sum total duration” value (i.p. 50 mg/kg, period 0-20 min) was 322 ± 53 s, the “sum total duration” value [1] was 281 ± 58 s and the “sum total duration” value [2] was 133 ± 40 s. For the same compound, the “sum total duration” value [3] was 198 ± 28 s, the “sum total duration” value [4] was 195 ± 32 s and the “sum total duration” value [5] was 182 ± 43 s. The “sum total duration” value [6] was 251 ± 73 s, the “sum total duration” value [7] was 193 ± 65 s and the “sum total duration” value [8] was 66 ± 44 s. The “sum total duration” value [9] was 74 ± 59 s, the “sum total duration” value [10] was 195 ± 38 s and the “sum total duration” value [11] was 127 ± 57 s. The “sum total duration” value [12] was 260 ± 44 s, the “sum total duration” value [13] was 134 ± 22 s and the “sum total duration” value [14] was 57 ± 26 s. The “sum total duration” value [15] was 27 ± 16 s, the “sum total duration” value [16] was 46 ± 21 s and the “sum total duration” value [17] was 43 ± 12 s. The “sum total duration” value [18] was 264 ± 54 s, the “sum total duration” value [19] was 105 ± 37 s and the “sum total duration” value [20] was 47 ± 20 s. For the same compound, the “sum total duration” value [21] was 52 ± 44 s, the “sum total duration” value [22] was 42 ± 28 s and the “sum total duration” value [23] was 22 ± 9 s. For the same compound, the “sum total duration” value [24] was 91 ± 31 s, the “sum total duration” value [25] was 182 ± 92 s and the “sum total duration” value [26] was 227 ± 127 s. For the same compound, the “sum total duration” value [27] was 122 ± 67 s, the “sum total duration” value [28] was 85 ± 35 s and the “sum total duration” value [29] was 184 ± 86 s. The “sum total duration” value [30] was 239 ± 132 s, the “sum total duration” value [31] was 234 ± 117 s and the “sum total duration” value [32] was 123 ± 58 s. For the same compound, the “sum total duration” value [33] was 20 ± 10 s, the “sum total duration” value [34] was 2 ± 1 s and the “sum total duration” value [35] was 7 ± 5 s. For the same compound, the “sum total duration” value [36] was 0 ± 0 s, the “sum total duration” value [37] was 2 ± 1 s and the “sum total duration” value [38] was 2 ± 2 s. For the same compound, the “sum total duration” value [39] was 1 ± 1 s.
